Measured values taken from PubChem BioAssay AID1476 (National Center for Advancing Translational Sciences (NCATS), 2009).
The whole screen tested about 200,000 compounds, of which about 4,500 (2.2%) were called active. This list was built around the results that the source calls inconclusive (neither active nor inactive); the mix of calls is not that of the screen. Calls come from the whole dose curve; as a rule, active = well fitted inhibition curve with a large enough effect; inconclusive = small, poorly fitted or top-dose-only effect, or effect the other way; inactive = flat fitted curve, though single readings scatter. Potencies of inconclusive entries are doubtful fits and often do not repeat.

target: Cruzipain (Trypanosoma cruzi) (UniProt P25779); test: qHTS Assay for Promiscuous and Specific Inhibitors of Cruzain (without detergent); conditions: purified cruzain, Z-FR-AMC fluorescence, no detergent; note: nearly all actives have a fitted effect of over 40% in size;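 for max response, negative = inhibition: plate controls were enzyme without inhibitor for no effect and buffer without enzyme for full effect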
Outline: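 Detergent-free condition (0.00005% Triton X-100) in acetate buffer pH 5.5 with DTT. 1.5 nM enzyme and compound were pre-mixed 15 min, then 2 uM Z-FR-AMC substrate added; reaction progress from fluorescence change between first and third reads (60 s).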
Potency is the fitted concentration of half-maximal effect; tags give direction and shape of the fitted curve.

Chain of UniProt P25779 (P25779 whole entry, looked up): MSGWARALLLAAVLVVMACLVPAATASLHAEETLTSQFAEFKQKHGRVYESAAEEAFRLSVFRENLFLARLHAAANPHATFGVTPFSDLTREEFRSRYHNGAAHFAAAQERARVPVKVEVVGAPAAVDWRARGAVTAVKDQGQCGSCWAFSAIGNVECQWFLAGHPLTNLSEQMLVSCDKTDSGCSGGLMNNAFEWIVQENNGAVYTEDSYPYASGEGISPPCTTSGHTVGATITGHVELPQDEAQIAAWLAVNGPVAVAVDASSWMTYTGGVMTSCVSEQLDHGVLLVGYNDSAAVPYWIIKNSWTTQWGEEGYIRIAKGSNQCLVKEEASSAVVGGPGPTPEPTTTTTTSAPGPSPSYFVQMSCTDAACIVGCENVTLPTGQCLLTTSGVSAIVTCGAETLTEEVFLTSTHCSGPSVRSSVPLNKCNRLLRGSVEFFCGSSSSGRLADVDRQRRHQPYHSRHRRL

Structure (SMILES) | Potency | max response, negative = inhibition
CCOc1ccc(S(=O)(=O)Nc2cccc(-c3ccc(N4CCCC4)nn3)c2)cc1 | inconclusive: 39.8 µM [inhibitor, single point] | –
COc1ccccc1C(=O)Nc1ccc2nc(SCC(=O)N3CCCC3)sc2c1 | – | inactive: -0.161%
COc1ccccc1NC(=O)CN(c1ccc([N+](=O)[O-])cc1)S(=O)(=O)c1ccccc1 | – | inactive: 8.67%
COc1ccc(NS(=O)(=O)c2cc(N/C(=N\S(=O)(=O)c3ccccc3)c3ccc(F)cc3)ccc2Cl)cc1 | inconclusive: 39.8 µM [inhibitor, single point] | –
COc1ccc(OC)c(NC(=O)CSc2nc3ccccc3c(=O)n2CCNC(C)=O)c1 | inconclusive: 39.8 µM [activator, single point] | –
O=C(c1cccs1)C1CN2CCC1CC2 (stereo not given) | inconclusive: 31.6 µM [activator, single point] | –
COc1ccc(CCn2c(=S)[nH]c3cc(C(=O)NCc4ccco4)ccc3c2=O)cc1OC | inconclusive: 6.31 µM [activator, single point] | –
Cc1ccccc1OCCC(=O)NCCc1ccc(S(N)(=O)=O)cc1 | – | inactive: 9.32%
O=C(Cc1ccc(Cl)cc1)Nc1ccc(N2CCCC2)cc1 | active: 6.31 µM | –
O=C(Cc1ccc(S(=O)(=O)N2CCOCC2)s1)NCCC(c1ccccc1)c1ccccc1 | inconclusive: 25.1 µM [activator, single point] | –
COc1ccc(OC)c(CNC(=O)c2cc(S(=O)(=O)N3CCC(C)CC3)cn2C)c1 | inconclusive: 39.8 µM [activator, single point] | –
COc1ccc(CCN(Cc2cccs2)S(=O)(=O)c2ccc(S(=O)(=O)N(C)C3CCCCC3)cc2)cc1OC | inconclusive: 31.6 µM [inhibitor, single point] | –
CCN(CC)CCn1c(-c2ccccc2)nc2c(NCCOC)nc(C)nc21 | – | inactive: -2.12%
CC(C(=O)Nc1sc2c(c1C#N)CCCCC2)N1C(=O)c2ccccc2C1=O (stereo not given) | inconclusive: 25.1 µM [inhibitor, single point] | –
COc1ccc(CNC(=O)C2CCN(S(=O)(=O)c3ccc4nc5c(c(C(=O)O)c4c3)CCCC5)CC2)cc1 | inconclusive: 39.8 µM [activator, single point] | –
CCCCCCN(C(=O)CCCCCN1C(=O)NC(c2ccc(C(F)(F)F)cc2)C(C(=O)OCc2ccccc2)=C1C)C(C(=O)NCCCC)c1ccc(OCC(=O)OC)c(C(=O)OC)c1 (stereo not given) | inconclusive: 25.1 µM [activator, single point] | –
Cc1cccc(NC(=O)C2CCN(S(=O)(=O)c3ccc4[nH]c5c(c4c3)CCCCC5)CC2)c1 | active: 12.6 µM | –
COc1cc(OC)c2c(-c3cccc(-c4cccc(C)c4)c3)cc(=O)oc2c1 | active: 10 µM | –
CC1=NN(c2ccccc2)C(=O)C1C(=O)c1ccc(Cl)cc1 (stereo not given) | – | inactive: 2.23%
Cn1c(N)c(C(=O)COC(=O)C2(c3ccccc3F)CCCC2)c(=O)n(C)c1=O | inconclusive: 39.8 µM [activator, single point] | –
COc1ncc2nc(-c3ccccc3)c(=O)n(C[C@H]3CCCO3)c2n1 | – | inactive: -6.23%
N#CC(C#N)=CC1=C2OC(c3ccccc3)=CC(c3ccccc3)=C2CCC1 | active: 5.01 µM | –

Structure (SMILES) | Potency | max response, negative = inhibition
COc1ccccc1C(=O)Nc1cccc(OCc2cc(=O)n3c(C)csc3n2)c1 | inconclusive: 39.8 µM [activator, single point] | –
CCc1cc(-c2n[nH]c(=S)n2N)n(C)n1 | – | inactive: 7.3%
O=c1[nH]c(-c2ccc(Cl)cc2)nc2c1cnn2-c1ccccc1 | active: 25.1 µM | –
CCOc1ccc(NC(=O)CCc2nc3cccnc3n2Cc2ccc(OC)cc2)cc1 | – | inactive: -8.81%
Cc1nc2c(C(=O)NCc3ccccc3Cl)c[nH]n2c(=O)c1Cl | inconclusive: 39.8 µM [activator, single point] | –
COc1ccc(-n2c(=O)c(C)nc3cnc(Nc4ccccc4)nc32)cc1 | – | inactive: 17%
O=C(O)COCCN1CCN(C(c2ccccc2)c2ccc(Cl)cc2)CC1 (stereo not given) | inconclusive: 31.6 µM [activator, single point] | –
FC(F)(F)c1cnc(-c2cnc3c(-c4ccc(Cl)cc4)cnn3c2)c(Cl)c1 | active: 10 µM | –
CCN(CC)c1ccc(C(=O)NCc2ccc3c(c2)CCN3C(=O)c2cccc(C)c2)cc1 | inconclusive: 39.8 µM [inhibitor, single point] | –
CCN(CC)c1ccc(NC(=O)CN(C)S(=O)(=O)c2cccc3nsnc23)c(C)c1 | – | inactive: -3.01%
Cc1ccc(C(=O)N(Nc2nc3ccccc3s2)C(=O)c2ccc(C)cc2)cc1 | inconclusive: 25.1 µM [inhibitor, single point] | –
COc1c(C)cccc1C(=O)Nc1ccc(Cl)c(-c2nc3cc(C)ccc3o2)c1 | inconclusive: 39.8 µM [inhibitor, single point] | –
CCSc1nc(N)c(C#N)c(-c2ccco2)c1C#N | active: 20 µM | –
Cc1cc2cc(CNC(=O)c3ccc(C)c([N+](=O)[O-])c3)ccc2[nH]1 | inconclusive: 39.8 µM [inhibitor, single point] | –
CCNC(=S)N(CCc1cccc(C)c1)Cc1cc2cc(OC)c(OC)cc2[nH]c1=O | inconclusive: 25.1 µM [activator, partial curve] | –
CCOc1ccc(S(=O)(=O)NCCc2csc3nc(-c4ccc(OC)c(OC)c4)nn23)cc1 | inconclusive: 39.8 µM [activator, single point] | –
COc1cn(CC(=O)Nc2c(C)cc(C)cc2C)c(CN2CCCCC2)cc1=O | – | inactive: -4.77%
CCOCCc1nn2c(=O)cc(COC(=O)COc3ccc(C)c(C)c3)nc2s1 | – | inactive: 8.51%
COc1ccc(NC(=O)CN2CCN(c3nc(-c4cccc(OC)c4)cs3)CC2)cc1 | inconclusive: 25.1 µM [activator, single point] | –
COc1ccc(-c2nc3ccccc3s2)cc1NC(=O)c1ccc(C#N)cc1F | – | inactive: 1.31%
O=C(N/N=C/c1ccc2c(c1)OCO2)/C(=C/c1ccc2c(c1)OCO2)NC(=O)c1ccccc1 | inconclusive: 39.8 µM [inhibitor, single point] | –
CCn1c(C(=O)NCc2ccc(C)cc2)cc2sc(Cl)cc21 | – | inactive: 0.337%

Structure (SMILES) | Potency | max response, negative = inhibition
CCN(CC)S(=O)(=O)c1ccc(Cl)c(NC(=O)COC(=O)/C=C/c2cc(OC)c(OC)c(OC)c2)c1 | inconclusive: 39.8 µM [activator, single point] | –
CC(C)C(=O)N(c1cc2sc(=O)oc2c2ccccc12)S(=O)(=O)c1cccs1 | inconclusive: 25.1 µM [inhibitor, single point] | –
Cc1cccc(N2CCN(C(=O)c3cn(C)c4ccc(S(=O)(=O)N(C)C)cc4c3=O)CC2C)c1 (stereo not given) | inconclusive: 31.6 µM [activator, single point] | –
CCc1nnc(SCC(=O)Nc2ccc(Cl)cc2F)c2cc3occc3n12 | inconclusive: 39.8 µM [inhibitor, single point] | –
CCc1ccc(CNC(=O)c2ccc(CS(=O)c3ccc(Br)cc3)o2)cc1 (stereo not given) | inconclusive: 39.8 µM [activator, single point] | –
CCOC(=O)Cn1c(=O)n(-c2ccccc2OC)c2nc(-c3ccccc3)nc(C(N)=O)c21 | inconclusive: 39.8 µM [activator, single point] | –
COc1ccc(C2=CC(c3ccccc3Cl)n3nc(-c4ccc(C)cc4)nc3N2)cc1 (stereo not given) | active: 3.16 µM | –
Cc1ccc2nc(N(Cc3cccnc3)C(=O)c3ccco3)sc2c1 | inconclusive: 39.8 µM [activator, single point] | –
CC(=O)c1cnc(Nc2nc(C)c3cc(C)c(C)cc3n2)nc1C | – | inactive: -7.95%
CCCCC(=O)Nc1nc(C)c(-c2csc(Nc3cc(OC)ccc3OC)n2)s1 | inconclusive: 31.6 µM [inhibitor, single point] | –
COc1ccc(-c2cc(C#N)nc(N3CCN(c4ccccc4)CC3)n2)cc1 | inconclusive: 39.8 µM [inhibitor, single point] | –
COc1ccnc(Oc2ccc(F)cc2)c1C(=O)N/C=N/OCc1ccc(F)cc1Cl | inconclusive: 31.6 µM [activator, single point] | –
Cc1ccc(S(=O)(=O)c2cccc(S(=O)(=O)N3CCOCC3)c2)cc1S(=O)(=O)N1CCOCC1 | inconclusive: 39.8 µM [activator, single point] | –
COc1ccc(-c2nc(CSCC(=O)NCCC3=CCCCC3)c(C)o2)cc1OC | inconclusive: 31.6 µM [activator, single point] | –
COc1cccc(-n2c(SCC(=O)c3ccccc3)nc3c([nH]c4ccccc43)c2=O)c1 | – | inactive: 2.01%
CCCn1c(COc2cccc(C)c2)nc2ccccc21 | – | inactive: 0.0214%
C[C@@H]1C(=O)CC2C(C)(C)CCC[C@]2(C)[C@@]1(O)CCc1ccoc1 (stereo not given in full) | – | inactive: -7.27%
CCc1sc(Nc2cccc(Cl)c2)nc1-c1cc2cccc(OC)c2oc1=O | inconclusive: 39.8 µM [inhibitor, single point] | –
Cc1ccc(S(=O)(=O)Nc2cc3c(C(=O)OCc4ccccc4)c(C)oc3c3ccccc23)c(C)c1 | active: 5.01 µM | –
Cc1cccc(OCC(=O)Nc2cccc(C(=O)OCc3cc(=O)n4nc(C(C)C)sc4n3)c2)c1 | – | inactive: 4.78%
COC(=O)c1ccc(NC(=O)Cn2ccn3nc(-c4ccc(OC)cc4)cc3c2=O)cc1 | inconclusive: 6.31 µM [activator, single point] | –
